Data from the BET-seq Pho4 binding data (Le et al. 2018).
This is one part of the list. These are noisy estimates, calculated here from bound and input reads.

Molecular target: T1, Pho4 (S. cerevisiae) (UniProt P07270)
T1 sequence: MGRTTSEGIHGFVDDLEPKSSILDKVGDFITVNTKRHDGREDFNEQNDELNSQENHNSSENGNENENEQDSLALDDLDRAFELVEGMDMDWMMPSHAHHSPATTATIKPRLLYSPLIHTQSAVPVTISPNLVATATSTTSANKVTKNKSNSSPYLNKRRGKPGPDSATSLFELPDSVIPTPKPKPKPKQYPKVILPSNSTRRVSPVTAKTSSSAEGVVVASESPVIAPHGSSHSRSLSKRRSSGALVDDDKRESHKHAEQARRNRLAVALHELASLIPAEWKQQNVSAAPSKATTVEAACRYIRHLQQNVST
Assay: relative binding free energy (BET-seq); higher = weaker binding
Details: reference: library average

| Sequence | relative binding free energy |
| --- | --- |
| GAGCACACGTGGGAGG | 0.02 kcal/mol |
| ACTTGCACGTGTGGTA | 0.06 kcal/mol |
| ATTGTCACGTGCTTTA | -0.04 kcal/mol |
| TAGGACACGTGATTAT | 0.15 kcal/mol |
| TGCTCCACGTGGGGGA | 0.04 kcal/mol |
| AGGTCCACGTGAGAGG | 0.24 kcal/mol |
| TTTCTCACGTGAATTT | 0.48 kcal/mol |
| TGTTTCACGTGTCGCT | 0.21 kcal/mol |
| TGTGGCACGTGTTAAC | 0.05 kcal/mol |
| AGATTCACGTGGGCGA | 0.27 kcal/mol |
| AATATCACGTGTAATT | 0 kcal/mol |
| AGATACACGTGGGTAA | -0.03 kcal/mol |
| TTTTCCACGTGGATGA | 0.22 kcal/mol |
| TAAAGCACGTGTTTGA | -0.14 kcal/mol |
| AATATCACGTGTTGTT | 0.13 kcal/mol |
| GCTTTCACGTGGTGGT | 0.28 kcal/mol |
| GCGGTCACGTGGGCGG | -0.04 kcal/mol |
| TAGATCACGTGGTAGA | 0.14 kcal/mol |
| GGTGCCACGTGGAAGT | 0.12 kcal/mol |
| TCTTGCACGTGTGTTA | 0.03 kcal/mol |

| Sequence | relative binding free energy |
| --- | --- |
| TCGGTCACGTGGGTTA | 0.03 kcal/mol |
| GAGGCCACGTGGCGTG | -0.16 kcal/mol |
| GTTTCCACGTGCGTTG | 0.07 kcal/mol |
| GGGGGCACGTGATTTA | 0.1 kcal/mol |
| CGGGGCACGTGGTTTG | -0.12 kcal/mol |
| GTGCTCACGTGTGTGA | 0.24 kcal/mol |
| TGTTTCACGTGGTCAA | 0.15 kcal/mol |
| TGGGGCACGTGTGATA | -0.04 kcal/mol |
| TGATGCACGTGTTGCG | 0.02 kcal/mol |
| GCGGACACGTGTGTGT | 0.14 kcal/mol |
| TTTTTCACGTGTATCT | 0.15 kcal/mol |
| AGAAACACGTGTGTAG | 0.09 kcal/mol |
| GGGGTCACGTGGACGG | 0.27 kcal/mol |
| TTTCTCACGTGGATGT | 0.36 kcal/mol |
| TGCTTCACGTGTGCTT | 0.3 kcal/mol |
| TTATTCACGTGGTTAA | 0.17 kcal/mol |
| TGTTGCACGTGTCGCG | 0.02 kcal/mol |
| TCGTTCACGTGGTGGG | 0.21 kcal/mol |
| TTTTGCACGTGGGGGC | -0.14 kcal/mol |
| TCGGGCACGTGCATGT | -0.04 kcal/mol |

| Sequence | relative binding free energy |
| --- | --- |
| TGAAGCACGTGTTTAT | -0.08 kcal/mol |
| TAGTTCACGTGATACT | 0.31 kcal/mol |
| AGTCGCACGTGGTGCT | -0.05 kcal/mol |
| TTTAGCACGTGTAATA | 0.11 kcal/mol |
| ACGGTCACGTGGGTCT | 0.01 kcal/mol |
| AGGTCCACGTGATGGG | 0.15 kcal/mol |
| GTAAACACGTGGATTG | 0 kcal/mol |
| ATTGCCACGTGGTAGT | -0.19 kcal/mol |
| AAATGCACGTGAGATG | 0.35 kcal/mol |
| TGAGTCACGTGTCGTT | 0.3 kcal/mol |
| TTGAGCACGTGTAGGG | -0.14 kcal/mol |
| GATAGCACGTGCGTGT | -0.08 kcal/mol |
| GAGGCCACGTGGGGAA | -0.14 kcal/mol |
| GTGTGCACGTGTTACA | -0.02 kcal/mol |
| GAGGTCACGTGTTAGG | 0.16 kcal/mol |
| TCTGACACGTGTATGT | 0.15 kcal/mol |
| CATGTCACGTGGGTTT | -0.01 kcal/mol |
| ATAGGCACGTGTATGT | -0.04 kcal/mol |
